In article PMC9574860, “Chemical Toolkit for PARK7: Potent, Selective, and High-Throughput” (Journal of Medicinal Chemistry, 2022):
Out of some 7,900 compounds screened, about 400 (5.1%) showed an effect of 50% or more. Some of the results follow.

These compounds were tested against Parkinson's disease protein 7 (PARK7/DJ1) (human, UniProt Q99497) (assay: primary screen, percent inhibition; read as competition with a fluorescent probe by fluorescence polarization; higher = more effect of the substance). Conditions: 100 µM.
Chain of Parkinson's disease protein 7 (PARK7/DJ1) (Q99497 whole entry, looked up, the tested form may be a part): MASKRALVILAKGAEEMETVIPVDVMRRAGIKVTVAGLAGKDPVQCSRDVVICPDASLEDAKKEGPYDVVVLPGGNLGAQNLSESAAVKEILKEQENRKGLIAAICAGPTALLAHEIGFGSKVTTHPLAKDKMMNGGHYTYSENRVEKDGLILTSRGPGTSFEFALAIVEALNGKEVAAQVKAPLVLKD
How it was run: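 Covalent fragments at 100 μM final were incubated 2 h with 0.2 μM PARK7, then 20 nM probe JYQ-107 added for a further 2 h. Fluorescence polarization read at 480/520 nm; relative FP loss versus reference controls gave remaining enzyme activity.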
In the case of `Cn1cc(S(=O)(=O)F)c(N)n1`, the Inhibition % is reported as 7.95%.
With `C=CC(=O)NC(C)(C)c1cnn(C)c1` the Inhibition % was 3.17%.
With `Cc1cc2ncn(C(=O)N3CCCC3)c2cc1C` the Inhibition % was 11.5%.
For `N#CC(=Cc1ccncc1)C(=O)NCc1ccco1`, the Inhibition % was 14.7%.
`O=C1NC(c2cccnc2)C12CCC2` (centres unmarked) showed an Inhibition % of 3.72%.
In the case of `COCC(C)NC(=O)C(C#N)=Cc1ccc(F)c(C)c1` (centres unmarked), the Inhibition % is reported as 5.47%.
`COC1C=CS(=O)(=O)C1` (centres unmarked) gave an Inhibition % of 4.95%.
`O=c1c2cccnc2nc(S)n1C1CC1` showed an Inhibition % of 7.8%.
`CCn1nc(C)c(C(=O)Nc2cccc(S(=O)(=O)F)c2)c1Cl` gave an Inhibition % of 8.14%.
`CNC(=O)c1cccc(CN2C(=O)CSC2=O)c1` showed an Inhibition % of 10.4%.
In the case of `N#Cc1ncn(CC(=O)Nc2cccc(F)c2)n1`, the Inhibition % is reported as 7.22%.
`CC1(C2CC2)CCN(c2cncc(C#N)n2)CC1` showed an Inhibition % of 6.7%.
For `NC(=S)c1cccnc1S`, the Inhibition % was 7.34%.
Work on `O=c1[nH]c(S)nnc1-c1ccccc1` yielded an Inhibition % of 6.07%.
For `FC(F)(F)c1cnc(S)c(Cl)c1`, the Inhibition % was 5.52%.
With `C=CC(=O)NCc1cc2n(n1)CCC2` the Inhibition % was 10.7%.
`C=CC(=O)N1CCC(C)(c2cccc(F)c2)C1` (centres unmarked) was tested, and the Inhibition % was 4.56%.
`C=CC(=O)N1CC(C)OC2(CCOC(C)C2)C1` (centres unmarked) gave an Inhibition % of 9.19%.
`Cn1cccc1C(=O)CCl` gave an Inhibition % of 8.03%.
Compound `C=CCNC(=O)C(C#N)=Cc1cccc(O)c1` has an Inhibition % of 4.34%.
`CCN1CCN(c2oc(-c3ccco3)nc2C#N)CC1` gave an Inhibition % of 9.73%.
Compound `C=CC(=O)NC1CCCC1(F)F` (centres unmarked) has an Inhibition % of 8.23%.
`C=CC(=O)N1CCCCC(S(C)(=O)=O)C1` (centres unmarked) showed an Inhibition % of 8.81%.
`C=CC(=O)N1C[C@]2(C)COC[C@]2(C)C1` was tested, and the Inhibition % was 9.62%.
Compound `CC(c1ccccc1)N1CCN(C(=O)CCl)CC1.Cl` (centres unmarked) has an Inhibition % of 4.62%.
Compound `O=C1OCCC1Sc1ncnc2ccccc12` (centres unmarked) has an Inhibition % of 54.5%.
`COc1ccc(C=C(C#N)c2nc(C)cs2)cc1O` gave an Inhibition % of 33.2%.
Compound `CC1CC(C(=O)NCc2cc(=O)[nH]c(S)n2)CC(C)(C)C1` (centres unmarked) has an Inhibition % of 6.89%.
In the case of `Cc1nccc(NS(=O)(=O)c2ccc(S(=O)(=O)F)cc2)n1`, the Inhibition % is reported as 57.9%.
Work on `O=C(CCl)N=c1sccn1Cc1cccc2ccccc12` yielded an Inhibition % of 3.64%.
`C=CC(=O)NC1CCCS(=O)(=O)c2ccccc21` (centres unmarked) showed an Inhibition % of 10.9%.
`Cc1ccc(C=CC(=O)N2CCC(NS(C)(=O)=O)CC2)o1` gave an Inhibition % of 10.6%.
Work on `N#CCc1ccc(NS(=O)(=O)C=Cc2ccccc2)cc1` yielded an Inhibition % of 7.7%.
With `NC(=O)CCc1ccc(C(=O)CCl)cc1` the Inhibition % was 82.5%.
`O=C(CCl)Nc1ncc(C(F)(F)F)cc1Cl` gave an Inhibition % of 15.4%.
For `O=C(NCC12CC3CC(CC(C3)C1)C2)c1cccnc1S`, the Inhibition % was 8.16%.
`Cc1nc(NS(=O)(=O)c2ccc(S(=O)(=O)F)cc2)no1` gave an Inhibition % of 22.7%.
`O=C(CCl)NC1CCCC1` gave an Inhibition % of 15.6%.
`Cc1cc(NC(=O)CCCl)no1` was tested, and the Inhibition % was 1.08%.
For `N#CC(=Cc1ccsc1)C(=O)Nc1nccs1`, the Inhibition % was 8.96%.
Work on `C=CC(=O)NC1CCCOC1` (centres unmarked) yielded an Inhibition % of 0.851%.
`CCc1noc(CC)c1CNCc1ccc(B(O)O)cc1` showed an Inhibition % of 4.39%.
`Cc1cc(C)n(S(=O)(=O)c2ccccc2)n1` showed an Inhibition % of 11.5%.
For `Cc1cc(C=C(C#N)C(=O)N2CCC2)c(C)n1C1CC1`, the Inhibition % was 5.63%.
For `N#CC(=Cc1csc(-c2ccc(F)cc2)n1)C(N)=O`, the Inhibition % was 12.4%.
`C=CC(=O)N[C@@H]1c2sccc2OC(C)(C)[C@H]1O` (racemic) was tested, and the Inhibition % was 9.43%.
In the case of `O=C1CC(CC(=O)N2CCSc3ccccc32)CO1` (centres unmarked), the Inhibition % is reported as 2.01%.
With `O=C(CCl)Nc1ccc(Cl)c(C(F)(F)F)c1` the Inhibition % was 26.2%.
For `OB(O)C1=CCN(Cc2ccnn2-c2ccncc2)CC1`, the Inhibition % was 61.3%.
For `C=CC(=O)N1CC(C)(OCC)C1`, the Inhibition % was 8.54%.
Work on `C=CC(=O)N1CC=C(COC)CC1` yielded an Inhibition % of 11.3%.
`Cc1noc(C(C)NS(=O)(=O)C=Cc2ccccc2)n1` (centres unmarked) was tested, and the Inhibition % was 8%.
For `C=CC(=O)N1CC(=O)Nc2ccccc21`, the Inhibition % was 10%.
Compound `O=C1CCC(=O)N1CC1CO1` (centres unmarked) has an Inhibition % of 11%.
`Fc1cccc(C2CO2)c1` (centres unmarked) showed an Inhibition % of 28.4%.
Work on `CCOC1CC(Cl)C1` (centres unmarked) yielded an Inhibition % of 5.87%.
Compound `CNC(=O)C(C#N)=Cc1ccc(OC)cc1OC(C)C` has an Inhibition % of 7.72%.
`Cc1ccc(CN(C)C2CC(C)OC2=O)cc1` (centres unmarked) gave an Inhibition % of 6.84%.
`COc1ccc2[nH]c(C)c(C(=O)CCl)c2c1` showed an Inhibition % of 4.84%.
`C=CC(=O)NCC1(N(C)C)CCOCC1` was tested, and the Inhibition % was 14.4%.
In the case of `Cc1cc(C)cc(NC(=O)CCl)c1`, the Inhibition % is reported as 11.3%.
Compound `CC(c1ccccc1)N(C)C(=O)Cn1cnc(C#N)n1` (centres unmarked) has an Inhibition % of 7.46%.
With `O=C1OCCC1NC1c2ccccc2-c2ccccc21` (centres unmarked) the Inhibition % was 3.41%.
In the case of `N#Cc1ccc(NC2CCCC2O)cn1` (centres unmarked), the Inhibition % is reported as 3.91%.
`Cc1nn(-c2ccc(Cl)cc2)c(C)c1C=C(C#N)C(=O)O` showed an Inhibition % of -1.13%.
For `CC1NC(=O)CCC1NC(=O)c1ccnc(C#N)c1` (centres unmarked), the Inhibition % was 10%.
`N#Cc1ncsc1Cl` showed an Inhibition % of 2.87%.
For `C=CS(=O)(=O)Oc1ccccc1`, the Inhibition % was 12.6%.
Compound `OB(O)c1ccc2nncn2c1` has an Inhibition % of 3.76%.
For `O=S(=O)(F)c1ccc(S(=O)(=O)F)cc1`, the Inhibition % was 7.58%.
For `C=CC(=O)NCC1(C)CC1(C)C` (centres unmarked), the Inhibition % was -4.35%.
`CCOC(=O)N1CCN(C(=O)CCl)CC1` was tested, and the Inhibition % was 67.8%.
`O=C(CCl)Nc1ccccc1Oc1ccccc1` showed an Inhibition % of 6.38%.
`C#CC(=O)N(C)c1ccc(O)cc1` showed an Inhibition % of -2.3%.
`Cl.O=C(CCl)NC1CCN(C2CC2)CC1` gave an Inhibition % of 6.09%.
`O=C(CCl)NC(=O)c1ccc(OC(F)F)cc1` showed an Inhibition % of 28.9%.
Compound `CCOc1ccc(S(=O)(=O)n2nc(C)cc2C)cc1` has an Inhibition % of 3.86%.
Work on `C=CC(=O)NC1CCCN(c2ccccc2)C1` (centres unmarked) yielded an Inhibition % of 5.28%.
For `O=C(CCl)NCCOc1cccc(F)c1`, the Inhibition % was 14.5%.
`CN(C)C(=O)c1ccc(CNC(=O)CCl)cc1` was tested, and the Inhibition % was 2.36%.
With `Cc1nc(C(C)NC(=O)c2cccnc2S)no1` (centres unmarked) the Inhibition % was 8.34%.
Work on `C=CC(=O)N1CCCCC1C(=O)O` (centres unmarked) yielded an Inhibition % of 3.57%.
`CCOc1ccc(O)c(C=O)c1` was tested, and the Inhibition % was 13.8%.
`COc1ccc(C2CCCN2C(=O)n2ccnc2)cc1` (centres unmarked) showed an Inhibition % of 6.77%.
In the case of `CN(C)C(=O)Oc1ccc(Cl)c2cccnc12`, the Inhibition % is reported as 4.87%.
With `CN(CC(=O)Nc1ccc(F)cc1)C(=O)CCl` the Inhibition % was 94.2%.
For `O=c1onc(-c2cnccn2)n1Cc1cccc(F)c1`, the Inhibition % was -2.87%.
In the case of `CC(C)(C)c1cc(NC(=O)CCl)n(-c2ccccc2)n1`, the Inhibition % is reported as 29.9%.
For `O=S1(=O)C=CC(Nc2ccccc2)C1` (centres unmarked), the Inhibition % was 4.24%.
`C=CC(=O)N(C)Cc1c(C)noc1C` showed an Inhibition % of 0.947%.
Compound `Cc1ccc(F)cc1Oc1cnc(C#N)cn1` has an Inhibition % of 6.34%.
Compound `C=CCNC(=O)C(C#N)=Cc1ccc(OC)c(O)c1` has an Inhibition % of 5.17%.
With `CN(C)CCCn1c(S)nc2ccccc2c1=O` the Inhibition % was 5.79%.
`C=CC(=O)N1Cc2cnn(-c3ccncc3)c2CC(C)(C)C1` showed an Inhibition % of 3.45%.
Work on `N#CC1C(=O)NC(=O)C(C(=O)S)C12CCCCC2` (centres unmarked) yielded an Inhibition % of 14.8%.
`CC1(C)OB(c2cccc(OC(F)(F)F)c2)OC1(C)C` gave an Inhibition % of 0.275%.
Compound `COc1ccc(C2=NC(=Cc3csc(C)n3)C(=O)O2)cc1` has an Inhibition % of 14.1%.
For `CCN(C(=O)CCl)c1cccc2ccccc12`, the Inhibition % was 21.4%.
Compound `CC1(C)CC(OS(C)(=O)=O)CCO1` (centres unmarked) has an Inhibition % of 8.17%.
Compound `C=CC(=O)N1CCSCCC1C` (centres unmarked) has an Inhibition % of 7.94%.
Compound `Cc1ccc(NC(=O)Cn2cnc(C#N)n2)cc1Cl` has an Inhibition % of -3.39%.
With `CC(C)(C)OC(=O)N[C@@H]1CC[C@H](CS(=O)(=O)F)C1` (racemic) the Inhibition % was 87.2%.
With `C=CC(=O)N1CCC(c2ncno2)CC1` the Inhibition % was 9.72%.
Compound `C=CC(=O)NCc1ccn(C2CCCC2)n1` has an Inhibition % of 2.26%.
In the case of `Cc1cc(C#N)nc(NC2CCCCCC2)n1`, the Inhibition % is reported as 2.75%.
`O=C(CCl)NC(=O)c1ccc(Cl)cc1` was tested, and the Inhibition % was 19.6%.
In the case of `O=C(NCc1ccccc1)N1CCCCC1C1OCCO1` (centres unmarked), the Inhibition % is reported as 6.92%.
With `CC1CCCN1Cc1cccc(B2OC(C)(C)C(C)(C)O2)c1` (centres unmarked) the Inhibition % was 0.686%.
`C=CC(=O)Nc1ccc(N2CCNC(=O)C2)nc1` gave an Inhibition % of 30.4%.
`Cc1nc(C#N)cs1` showed an Inhibition % of 2.19%.
`COCc1cccc(CNC(=O)c2cccnc2S)c1` was tested, and the Inhibition % was 9.15%.
Compound `CC1(C)OB(c2scc3c2OCCO3)OC1(C)C` has an Inhibition % of 9.49%.
Compound `CN1C2CCC1CC(CCl)C2.Cl` (centres unmarked) has an Inhibition % of 5.78%.
`C=CC(=O)N1CC(n2cccn2)C1` was tested, and the Inhibition % was 9.97%.
Work on `Cl.NC1C=CS(=O)(=O)C1` (centres unmarked) yielded an Inhibition % of 9.63%.
Work on `Cc1n[nH]c(S)nc1=O` yielded an Inhibition % of 2.15%.
In the case of `COC(=O)c1cc(B2OC(C)(C)C(C)(C)O2)cn1C(=O)OC(C)(C)C`, the Inhibition % is reported as 7.29%.
`C#CC(=O)Nc1cc(OC)c(C(=O)O)cc1Cl` gave an Inhibition % of 3.68%.
With `C=CC(=O)NC1CCOC(C)(C)C1` (centres unmarked) the Inhibition % was 9.14%.
`C=CC(=O)N1CC(OC(=O)Nc2cccc(F)c2)C1` gave an Inhibition % of 3.98%.
Compound `CN1CC(=O)OB(c2cccc(Cl)c2)OC(=O)C1` has an Inhibition % of 10.6%.
With `C=CC(=O)NCC(=O)Nc1ccc2c(c1)OCCO2` the Inhibition % was 3.23%.
`O=C(CCl)NCCOc1ccc2ccccc2c1` was tested, and the Inhibition % was 28.3%.
In the case of `Cn1cc(C=CC(=O)N2CCN(c3nccs3)CC2)cn1`, the Inhibition % is reported as 7.93%.
`O=C(CCl)NC1CCCCCC1` showed an Inhibition % of 8.24%.
